# Out of some 310,000 compounds screened, about 2,200 (0.71%) showed an effect of 50% or more. The effect is printed as a negative number. This is one part of the list. Where a SMILES comes first, the peptide text is derived from it. [ ]: non-standard residue; d: D form. The star is where a group is joined. Hyp = O=C(O)[CH]1C[CH](O)CN1; Cbz = O=C(OCc1ccccc1)*; OBn = c1ccc(CO*)cc1
# Molecular target: human ether-à-go-go-related gene (hERG) potassium channel (human, UniProt Q12809)
# Assay: primary screen, population patch clamp on CHO cells stably expressing hERG
# Sequence of human ether-à-go-go-related gene (hERG) potassium channel (Q12809 whole entry, looked up): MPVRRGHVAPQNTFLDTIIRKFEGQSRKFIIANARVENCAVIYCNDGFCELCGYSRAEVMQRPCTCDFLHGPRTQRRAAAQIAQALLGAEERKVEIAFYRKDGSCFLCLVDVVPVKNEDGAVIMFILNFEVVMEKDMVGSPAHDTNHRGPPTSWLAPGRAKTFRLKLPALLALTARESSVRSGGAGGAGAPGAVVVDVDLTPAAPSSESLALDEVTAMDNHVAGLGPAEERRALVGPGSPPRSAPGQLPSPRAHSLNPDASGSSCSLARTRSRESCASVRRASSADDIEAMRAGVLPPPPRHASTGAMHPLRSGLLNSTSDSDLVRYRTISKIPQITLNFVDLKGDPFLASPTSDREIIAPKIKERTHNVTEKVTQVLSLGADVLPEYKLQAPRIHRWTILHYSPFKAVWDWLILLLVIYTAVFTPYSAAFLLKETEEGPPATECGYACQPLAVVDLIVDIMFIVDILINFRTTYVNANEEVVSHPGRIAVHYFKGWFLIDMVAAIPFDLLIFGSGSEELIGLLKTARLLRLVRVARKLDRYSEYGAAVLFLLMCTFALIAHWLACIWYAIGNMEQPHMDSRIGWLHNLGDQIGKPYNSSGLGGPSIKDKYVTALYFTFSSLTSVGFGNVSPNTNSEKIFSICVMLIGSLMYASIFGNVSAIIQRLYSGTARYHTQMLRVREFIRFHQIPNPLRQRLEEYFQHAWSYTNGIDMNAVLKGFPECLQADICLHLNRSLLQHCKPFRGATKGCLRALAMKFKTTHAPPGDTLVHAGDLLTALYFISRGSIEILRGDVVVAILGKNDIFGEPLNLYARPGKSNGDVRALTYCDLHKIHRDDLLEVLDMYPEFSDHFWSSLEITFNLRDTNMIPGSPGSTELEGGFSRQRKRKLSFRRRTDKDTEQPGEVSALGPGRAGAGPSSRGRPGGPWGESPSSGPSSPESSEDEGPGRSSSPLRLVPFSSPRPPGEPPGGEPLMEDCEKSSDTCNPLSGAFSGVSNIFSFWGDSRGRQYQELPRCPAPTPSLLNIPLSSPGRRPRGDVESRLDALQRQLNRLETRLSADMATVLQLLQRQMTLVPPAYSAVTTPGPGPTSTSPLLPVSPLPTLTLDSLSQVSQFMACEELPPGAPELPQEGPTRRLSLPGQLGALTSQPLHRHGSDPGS
row,Compound,"hERG current change (%, negative = inhibition) at 1uM [%]"
1,CCCCCCCCCCOC(=O)C[N+](C)(C)CC1CCCCC1O.[Cl-] (centres unmarked),0.667
2,CC1CCCCC1NC(=O)COC(=O)CN1C(=O)c2ccccc2C1=O (centres unmarked),15
3,CCOC(=O)c1ccc(-c2ccc(/C=C(\C#N)C(=O)NCC3CCCO3)o2)cc1 (centres unmarked),6.13
4,CCOc1cc(C2NN=C(c3ccc(C)cc3)S2)ccc1O (centres unmarked),5.35
5,CCc1ccc(C(=O)c2oc3nc(C)cc(C)c3c2N)cc1,16
6,Cc1ccccc1OCC(=O)N1N=C(c2cccnc2)CC1(O)C(F)(F)F (centres unmarked),10
7,Cc1ccc2c(c1)c1c(n2CC(O)Cn2c(C)nc3ccccc32)C(=O)CCC1 (centres unmarked),18.9
8,O=C(Nc1cccc(F)c1)C1CCCCC1,-0.825
9,Cc1ccc(S[C@@H](CCN2CC[C@H](C(C)(C)C)CCC2=O)c2ccccc2)cc1,14.4
10,COc1ccccc1-n1c(-c2ccccc2)c[n+]2c1CCc1ccccc1-2.[Br-],-34.7
11,O=C(COC(=O)c1ccc(Cl)c(S(=O)(=O)N2CCOCC2)c1)NCc1ccco1,2.09
12,Cc1ccc(CNCc2cccnc2)s1.Cl,11.7
13,O=C(NCC(=O)N1CC(O)CC1C(=O)N1CC(O)CC1C(=O)OCc1ccccc1)OCc1ccccc1 (stereo not drawn) (Cbz-Gly-[Hyp]-[Hyp]-OBn; configuration not given here),6.96
14,O=C(CCNS(=O)(=O)c1ccc(OC(F)(F)F)cc1)N1CCN(C/C=C/c2ccccc2)CC1,-21.4
15,O=[n+]1c2c(n([O-])c3cc(F)c(N4CCCC4)cc31)CCC2,11.5
16,COc1ccc(/C=C/C(=O)c2ccc([N+](=O)[O-])o2)cc1,13.3
17,c1ccc(N2OCC3Cn4c(nc5ccccc54)C32)cc1 (centres unmarked),-1.3
18,COc1ccc(C(=O)NCCCc2nc3ccccc3n2Cc2cc(C)ccc2C)cc1OC,0.238
19,CCCc1c(C)nn(-c2ncccc2[N+](=O)[O-])c1C,11.4
20,Nc1ncc2c(n1)-c1ccoc1CC2,19.2
21,Cc1cccn2cc(CCNS(=O)(=O)c3cccs3)nc12,3.71
22,CCOC(=O)CN(C(=O)CNC(=O)c1cccs1)C(C(=O)NC1CCCC1)c1cccnc1 (centres unmarked),8.77
23,O=C(O)c1ccc2oc(=O)c(S(=O)(=O)c3ccccc3)cc2c1,15.5

row,Compound,"hERG current change (%, negative = inhibition) at 1uM [%]"
1,Cc1cc(C(=O)N2CCCC(C(=O)c3cccc(C(F)(F)F)c3)C2)nc(C)n1 (centres unmarked),1.4
2,CCOC(=O)CSC1=C(C#N)C(c2ccccc2OCC)C(C(=O)OCC)C(=O)N1 (centres unmarked),9.29
3,O=C(c1cc(=O)[nH]c2ccccc12)N1CCN(S(=O)(=O)c2ccc(Cl)cc2)CC1,6.19
4,N#Cc1cc2c(nc1SCC(=O)Nc1ccc(Cl)cc1)C1CCN2CC1,1.04
5,CCOC(=O)Cn1nc(C)c([N+](=O)[O-])c1C,14.2
6,COc1ccc(CNC(=O)CN(Cc2ccc(Cl)cc2)C(=O)c2csnn2)cc1,-14.8
7,COc1ccc(-c2nc(-c3ccccc3OC)no2)cc1OC,0.656
8,COc1ccc(C(C(=O)NCC2CCCO2)N(C(=O)CNC(=O)c2ccco2)c2ccccc2)cc1OC (centres unmarked),6.09
9,COc1ccc(NC(=O)C2CCN(S(C)(=O)=O)CC2)cc1,7.76
10,O=C(O)C(=O)O.O=C(c1cccc(F)c1)N1CCC(N2CCOCC2)CC1,10.3
11,CCOc1ccccc1C1NC(=O)c2ccccc2O1 (centres unmarked),5.28
12,CC(=O)Nc1cc2c(ccc3ccccc32)oc1=O,19.8
13,Cc1ccc(C(=O)Nc2nc(-c3cccnc3)cs2)o1,-9.95
14,Cc1ccc(Cn2ccsc2=NC(=O)COC(=O)c2ccc(NC(=O)CC#N)cc2)cc1,1.37
15,COC(=O)C(Cc1ccccc1)NC(=O)CNC(=O)c1ccc(Br)cc1 (centres unmarked),-2.61
16,Cc1cccn2c(=O)nc(SCC(=O)N3CCC(Cc4ccccc4)CC3)nc12,-69.2
17,COc1cc(/C=N/Nc2cccc(C)c2)ccc1OC(=O)c1cccs1,5.87
18,CCn1c(C)nc2cc(NC(=O)Nc3cccc(C(C)=O)c3)ccc21,12.4
19,CCOC(=O)C1CCN(CCC(=O)Nc2ccc(Br)cc2)CC1,-33.2
20,CS(=O)(=O)CCC(C(=O)O)N1C(=O)c2ccc(Oc3ccc(Cl)cc3)cc2C1=O (centres unmarked),13.1
21,CN1C=CC=C/C1=C1\SC(=S)N(Cc2ccccc2)C1=O,2.64
22,COc1ccc(C2CC(c3ccccc3)=NN2C(=O)COC(=O)c2cccnc2Cl)cc1 (centres unmarked),14.4
23,O=C(NCCc1c[nH]c2ccccc12)c1cnccn1,10.7

row,Compound,"hERG current change (%, negative = inhibition) at 1uM [%]"
1,COC(=O)c1sc(NC(=O)CSc2nnnn2-c2cccc(OC)c2)nc1C,11.9
2,CCOC(=O)N/N=C/c1c(C)c(C(=O)c2ccc(F)cc2)n2ccccc12,17
3,CC1CCN(C(=O)C2CCN(S(=O)(=O)c3cccnc3)CC2)CC1,11.1
4,Cc1csc(NC(=O)c2ccco2)n1,3.48
5,O=C(/C=C/c1ccc(F)cc1)NNC(=O)CCN1CCN(Cc2ccccc2)CC1,-10.3
6,COc1ccc2ccccc2c1CN1CCSCC1,18.2
7,CN1CCN(C=Nc2nc3ccccc3nc2N2CCCC2)CC1,5.62
8,O=S1(=O)CCN2C=Nc3sc4c(c3C2=N1)CCCC4,9.11
9,Cc1onc(-c2c(Cl)cccc2Cl)c1C(=O)NNc1ccccc1,10.8
10,Nc1nonc1-n1nnc(C(=O)N/N=C/c2ccoc2)c1CSc1ccccc1,17.6
11,CC(=O)Oc1ccccc1/C=C/c1nc2ccccc2c(=O)o1,13
12,CCOC(=O)c1ccc(NC(=O)Cn2c(=O)oc3ccccc32)cc1,12.5
13,CCn1c(SCC#N)nc2cc(S(=O)(=O)N3CCOCC3)ccc21,7.91
14,CCCCCCSc1nnc(N)s1,7.6
15,O=C(Cn1cc(C(=O)C2CC2)c2ccccc21)Nc1ccccc1Cl,13.6
16,CCCn1nnnc1SCC(=O)N1CCOCC1,13.9
17,Cn1nnnc1SCc1nnc(-c2ccccc2Br)o1,7.49
18,COC(=O)c1cccc(NC(=O)CCc2ccccc2)c1,6.88
19,O=C(CSc1nnc(-c2c[nH]c3ccccc23)o1)N1CCCCC1,6.5
20,O=[N+]([O-])c1ccc(S(=O)(=O)N2CCN(c3ccnc4cc(Cl)ccc34)CC2)cc1,-77.8
21,Cc1cccc(NC(=S)NC(C)(C)CC(C)(C)C)c1,11.3
22,COc1ccc(N2CCN(C(=O)CCc3ccc(S(=O)(=O)NC(C)C)cc3)CC2)cc1,7.41
23,CCOC(=O)c1c(NC(C)=O)sc(/C(C)=N/Nc2ccc(C(=O)O)cc2)c1C,12.7

row,Compound,"hERG current change (%, negative = inhibition) at 1uM [%]"
1,CCc1ccc(CNC(=O)C2CCN(S(=O)(=O)N3CCCC3)CC2)cc1,3.4
2,Cc1ccc(C(=O)Nc2ccccc2SCC2CSc3nc4ccccc4c(=O)n32)cc1 (centres unmarked),-39
3,COc1ccc(-c2[nH]nc3c2C(c2ccoc2)C(C#N)=C(N)O3)cc1 (centres unmarked),3.52
4,COc1ccc(/C=N/NC(=O)CCNc2n[nH]c(=O)[nH]c2=O)c(OC)c1,17.6
5,COc1ccc(OC)c2sc(NNC(=O)C3COc4ccccc4O3)nc12 (centres unmarked),-7.04
6,Cc1ccc(-c2csc(NC(=O)c3cccc([N+](=O)[O-])c3C(=O)O)n2)cc1,-6.09
7,COc1ccc2nc(NC(=O)CN(c3ccc(C)cc3)S(=O)(=O)c3c(C)nn(C)c3C)sc2c1,-5.46
8,O=C(CCNC(=O)c1ccccc1Cl)Nc1cccc(C(F)(F)F)c1,3.66
9,C(=N\n1cnnc1)/c1cccnc1,3.86
10,CCCNc1ncnc2nc[nH]c12,-3.01
11,CCOC(=O)C1CCCN(C(=O)c2ccc3c(=O)n(Cc4ccccc4OC)c(=S)[nH]c3c2)C1 (centres unmarked),15.4
12,CCc1cccc(NC(=S)N2CCC(c3ccccc3)C2)c1 (centres unmarked),10.5
13,CN(C)CCN(C(=O)/C=C/c1cccs1)c1nc2ccc(Br)cc2s1.Cl,9.52
14,Cc1onc(-c2ccccc2)c1C(=O)Nc1cccc(OC(C)C)c1,-9.18
15,COC(=O)C1=C(c2cc3ccccc3o2)C[C@@H]2CC[C@H]1N2C(=O)NCc1ccco1,12.4
16,Fc1ccc(-c2ccc(/C=N/n3cnnc3)o2)cc1,7.73
17,CCS(=O)(=O)N1CCC(C(=O)N2CCOCC2)CC1,15.1
18,C=CCNc1nc(-c2cc3ccccc3o2)cs1,7.97
19,COc1ccc(/C(C)=N/NC(=O)CNC(=O)c2cccs2)cc1,7.37
20,COc1ccccc1C(=O)Nc1ccccc1N1CCN(S(C)(=O)=O)CC1,-7.72

# — publication PMC4336329 (PLoS ONE, 2015)
